# Reference: the supplement of paper PMC8728848
# Some of the results follow.
# Tests used:
# Experiment in all cases: glycan array binding signal (z-score within array); higher = stronger binding
# Conditions in all cases: glycan notation: IUPAC condensed, linker removed
# [1] = target: Neu5Gc(a2-6)Gal(b1-3)GlcNAc(b1-3)Gal(b1-4)Glc
# Outline: (§1)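 Arrays were curated from the Consortium for Functional Glycomics database, 3228 in total, and kept only where the protein sequence was available. Binding is expressed as a within-array Z-score. This score was averaged across arrays of the same protein sequence at different concentrations or buffers and across linkers, and negative values can be read as non-binding.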
# [2] = target: Neu5Gc(a2-6)Gal(b1-4)GlcNAc(b1-2)Man(a1-3)[Neu5Gc(a2-6)Gal(b1-4)GlcNAc(b1-2)Man(a1-6)]Man(b1-4)GlcNAc(b1-4)GlcNAc
# Outline: as §1
# Neu5Gc(a2-6)GalNAc = target: Neu5Gc(a2-6)GalNAc
# Outline: as §1
# Rha(a1-6)Glc = target: Rha(a1-6)Glc
# Outline: as §1
# [3] = target: Xyl(a1-6)Glc(b1-4)[Xyl(a1-6)]Glc(b1-4)[Xyl(a1-6)]Glc(b1-4)Glc
# Outline: as §1
# [4] = target: Xyl(b1-2)[Man(a1-3)][Man(a1-6)]Man(b1-4)GlcNAc(b1-4)GlcNAc
# Outline: as §1
# [5] = target: Xyl(b1-2)[Man(a1-3)][Man(a1-6)]Man(b1-4)GlcNAc(b1-4)[Fuc(a1-3)]GlcNAc
# Outline: as §1
# [6] = target: Xyl(b1-4)Xyl(b1-4)Xyl(b1-4)Xyl(b1-4)Xyl
# Outline: as §1
# [7] = target: Xyl(b1-4)Xyl(b1-4)Xyl(b1-4)Xyl(b1-4)Xyl(b1-4)Xyl
# Outline: as §1
binder,measurement,setting,value
"MIC1 (Toxoplasma gondii), O00834 (protein) VGPEAYGEASHSHSPASGRYIQQMLDQRCQEIAAELCQSGLRKMCVPSSRIVARNAVGITHQNTLQWRCFDTASLLESNQENNGVNCVDDCGHTIPCPGGVHRQNSNHATRHEILSKLVEEGVQRFCSPYQASANKYCNDKFPGTIARRSKGFGNNVEVAWRCYEKASLLYSVYAECASNCGTTWYCPGGRRGTSTELDKRHYTEEEGIRQAIGSVDSPCSEVEVCLPKDENPPLCLDESGQISRT",glycan array binding signal (z-score),[1],2.08
same,glycan array binding signal (z-score),[2],0.198
same,glycan array binding signal (z-score),Neu5Gc(a2-6)GalNAc,4.8
same,glycan array binding signal (z-score),Rha(a1-6)Glc,-0.287
same,glycan array binding signal (z-score),[3],-0.287
same,glycan array binding signal (z-score),[4],-0.287
same,glycan array binding signal (z-score),[5],-0.287
same,glycan array binding signal (z-score),[6],-0.287
same,glycan array binding signal (z-score),[7],-0.287
